# Some of the results follow. Each Rep nickase domain was tested in vitro on the same pool of single strands (3 µM enzyme, 1 h, 37 °C); shown is the middle of each 90-letter strand. Numbers give uncut DNA relative to the enzyme-free pool, as log2; the lower, the more was cut; hits are not called. Counts are relative to all reads, so uncut sequences can rise above 0 when many others are cut.
# Key:
# Assay in all cases: uncleaved DNA left, log2 of reads against the no-enzyme library (log2 ratio); higher = less cleavage (more negative = more Rep cleavage of the k-mer); sequences stand for … in CTCGTCCG…ACCGGAGA
# [1] = tested on: T1, Rep nickase domain of Muscovy duck circovirus
# T1 sequence (residues 1-111 of Rep, tag left off): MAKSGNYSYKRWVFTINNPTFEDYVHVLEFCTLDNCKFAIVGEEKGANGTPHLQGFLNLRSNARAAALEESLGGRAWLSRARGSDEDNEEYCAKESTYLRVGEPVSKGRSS
# Description: (§1)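 A pool of 90-nt single-stranded DNAs with seven random bases just before the constant AC of the nick site (name = the seven bases) was cut by 3 µM recombinant His6-SUMO-tagged Rep nickase domain (300 nM DNA, 50 mM HEPES pH 8.0, 50 mM NaCl, 1 mM MnCl2, 1 h, 37 °C, three replicates). Uncut DNA was amplified and sequenced.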
# [2] = tested on: T2, Rep nickase domain of banana bunchy top virus
# T2 sequence (residues 1-94 of Rep, tag left off): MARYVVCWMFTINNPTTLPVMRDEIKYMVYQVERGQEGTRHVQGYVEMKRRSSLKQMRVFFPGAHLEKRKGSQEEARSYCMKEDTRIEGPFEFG
# Description: as §1
# [3] = tested on: T3, Rep nickase domain of cabbage leaf curl virus
# T3 sequence (residues 1-116 of Rep, tag left off): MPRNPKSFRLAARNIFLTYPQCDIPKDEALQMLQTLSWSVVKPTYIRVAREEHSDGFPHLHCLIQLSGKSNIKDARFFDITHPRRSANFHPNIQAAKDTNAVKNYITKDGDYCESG
# Description: as §1
# [4] = tested on: T4, Rep nickase domain of chickpea chlorotic dwarf virus
# T4 sequence (residues 1-124 of Rep, tag left off): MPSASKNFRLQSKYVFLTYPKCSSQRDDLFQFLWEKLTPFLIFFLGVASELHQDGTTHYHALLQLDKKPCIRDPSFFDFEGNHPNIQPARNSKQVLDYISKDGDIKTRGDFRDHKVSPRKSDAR
# Description: as §1
# [5] = tested on: T5, Rep nickase domain of faba bean necrotic yellows virus
# T5 sequence (residues 1-98 of Rep, tag left off): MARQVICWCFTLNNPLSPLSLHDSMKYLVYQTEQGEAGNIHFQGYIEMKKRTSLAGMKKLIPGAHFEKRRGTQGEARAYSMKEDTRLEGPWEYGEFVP
# Description: as §1
# [6] = tested on: T6, Rep nickase domain of maize striate mosaic virus
# T6 sequence (residues 1-117 of Rep, tag left off): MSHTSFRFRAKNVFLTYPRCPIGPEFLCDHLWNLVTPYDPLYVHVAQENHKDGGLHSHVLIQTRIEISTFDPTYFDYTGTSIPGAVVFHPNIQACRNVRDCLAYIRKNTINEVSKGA
# Description: as §1
# [7] = tested on: T7, Rep nickase domain of porcine circovirus 2
# T7 sequence (residues 2-116 of Rep, tag left off): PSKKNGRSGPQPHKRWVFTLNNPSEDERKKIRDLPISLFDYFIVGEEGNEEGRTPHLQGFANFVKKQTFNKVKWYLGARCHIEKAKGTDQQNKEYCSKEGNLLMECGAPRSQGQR
# Description: as §1
# [8] = tested on: T8, Rep nickase domain of tomato yellow leaf curl virus
# T8 sequence (residues 1-136 of Rep, tag left off): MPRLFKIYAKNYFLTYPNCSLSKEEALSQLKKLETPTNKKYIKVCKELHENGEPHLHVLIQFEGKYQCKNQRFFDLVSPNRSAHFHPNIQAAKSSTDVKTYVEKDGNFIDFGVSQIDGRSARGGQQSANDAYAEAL
# Description: as §1
# [9] = tested on: T9, Rep nickase domain of wheat dwarf virus
# T9 sequence (residues 1-137 of Rep, tag left off): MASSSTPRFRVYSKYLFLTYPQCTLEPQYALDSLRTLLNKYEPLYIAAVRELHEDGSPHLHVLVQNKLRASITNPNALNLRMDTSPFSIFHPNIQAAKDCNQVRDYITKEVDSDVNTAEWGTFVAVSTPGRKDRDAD
# Description: as §1
Sequence,uncleaved DNA left (log2) [1],uncleaved DNA left (log2) [2],uncleaved DNA left (log2) [3],uncleaved DNA left (log2) [4],uncleaved DNA left (log2) [5],uncleaved DNA left (log2) [6],uncleaved DNA left (log2) [7],uncleaved DNA left (log2) [8],uncleaved DNA left (log2) [9]
CCCAGGG,0.105,-0.0291,-0.0988,0.172,0.0931,-0.566,0.104,0.0618,0.0459
AGGCCGG,0.257,0.101,0.422,0.973,0.197,1.07,0.2,0.0982,0.135
CTTGTAG,0.119,0.018,-0.727,-0.286,-0.00487,-1.01,0.241,0.13,-0.0299
AGTGTAT,0.025,0.0255,0.223,0.526,-0.092,1.06,-2.66,-0.00368,-0.0482
TTTTCCA,-0.212,-0.0414,0.0734,-1.08,-0.168,-0.00729,-0.415,-0.0149,-0.0722
CCGGTGA,0.0355,0.0378,0.153,0.183,-0.0148,0.0569,0.0387,-0.0918,-0.0183
CTGATTA,0.185,0.0667,0.0144,-0.802,0.176,-0.307,0.0639,0.119,0.128
CTCCTAT,-0.0892,-0.159,-0.117,-1.03,-0.163,-0.567,-0.483,-0.108,-0.131
GTTATAA,0.0785,0.134,0.324,0.829,0.0682,1.78,0.161,0.119,0.0992
CTTATCC,0.0124,0.103,0.237,0.0944,0.0931,-0.27,0.0452,0.129,0.188
AGCATTG,-0.0663,-0.0611,-0.156,0.47,-0.0263,1.11,0.0808,-0.0613,-0.0438
CAACTTA,0.00372,0.0478,-0.203,-2.57,0.0341,-0.674,-0.168,-0.00724,0.0183
CAAGACT,-0.0667,-0.0954,-0.258,-2.03,-0.0986,0.683,-0.191,-0.257,-0.116
CCAGGGT,0.112,0.0379,0.335,1.4,0.106,1.82,0.142,-0.091,0.0803
CGACTTC,0.0508,0.0288,0.16,0.58,0.0477,1.06,0.175,0.125,0.0933
TAGTGAT,-0.237,-0.56,-0.298,0.135,-0.526,1.65,-3.57,-0.0716,0.0161
TATACGC,-0.0784,-0.1,0.00757,-0.52,0.0619,-0.534,0.122,-0.000615,-0.136
CTGAGGC,-0.0602,-0.0812,-0.0441,0.0921,-0.16,-0.7,0.0241,0.0126,0.0465
TGGAGAC,0.0669,0.0655,0.804,1.75,-0.00392,1.91,0.172,0.0629,0.0555
TCACTCT,-0.0071,-0.0492,-0.231,-2.64,-0.107,-0.68,-0.177,-0.0601,-0.124

Sequence,uncleaved DNA left (log2) [1],uncleaved DNA left (log2) [2],uncleaved DNA left (log2) [3],uncleaved DNA left (log2) [4],uncleaved DNA left (log2) [5],uncleaved DNA left (log2) [6],uncleaved DNA left (log2) [7],uncleaved DNA left (log2) [8],uncleaved DNA left (log2) [9]
GTGCATT,0.0169,-0.0789,0.597,1.49,-0.146,2.06,0.135,0.0721,0.17
TTCAACG,0.0726,-0.0496,-0.846,-1.03,-0.0153,-1.35,0.135,-0.00987,-0.0962
CGCGAGA,0.0348,0.0673,0.578,1.15,-0.0115,0.717,0.12,0.0943,0.181
ACGGTTC,0.148,0.0117,-0.0241,-0.336,0.0463,0.0924,0.126,-0.0528,0.0212
GGGAGCC,-0.0179,0.135,0.753,1.83,-0.114,2.13,0.128,0.0494,0.176
AGCACCC,-0.00916,-0.0596,0.328,0.811,-0.114,1.18,-0.123,-0.0567,-0.0234
AAACTTC,-0.101,-0.127,-0.278,-1.34,-0.0179,-0.852,-0.145,-0.103,-0.0854
GCGGATA,-0.0435,0.044,0.656,1.6,0.109,1.99,0.15,0.0428,0.106
ATCCCAG,0.108,0.0975,-0.54,-0.561,0.0955,-0.866,0.268,0.113,0.00117
TGCAGAG,0.0263,0.0326,-0.327,-0.374,-0.0258,-0.844,0.086,0.0553,-0.151
ATCAGAT,0.0127,-0.0827,0.116,0.996,-0.00278,1.06,0.129,-0.0346,0.0306
TAGAACT,0.06,-1.74,-1.34,-2.92,-0.794,0.113,-3.5,0.157,-0.0345
CACAGGC,0.171,0.0408,-0.107,-0.182,0.114,-0.889,0.246,0.0535,-0.00721
ACCGGAT,0.131,0.0269,0.336,1.47,0.0238,1.57,0.188,-0.0079,0.11
ACCTTCT,-0.793,-0.103,-0.458,-2.33,-0.0973,-1.01,-2.63,-0.326,-0.191
GAGCCCA,0.00888,0.0597,0.189,-0.226,-0.129,0.813,-0.483,-0.0211,0.0787
CCGGCTG,-0.0669,-0.000642,0.138,0.633,-0.105,1.52,0.0555,-0.21,-0.0618
CGAAATT,0.199,0.0892,0.0592,-1.85,0.0874,-0.509,-0.643,0.175,0.0789
CGCCATC,-0.103,-0.162,0.0263,0.0888,-0.0771,-0.376,-0.0643,-0.0185,-0.0773
GGATACT,-1.25,-0.0236,0.448,0.85,0.00172,1.63,-2.54,0.00434,0.102

Sequence,uncleaved DNA left (log2) [1],uncleaved DNA left (log2) [2],uncleaved DNA left (log2) [3],uncleaved DNA left (log2) [4],uncleaved DNA left (log2) [5],uncleaved DNA left (log2) [6],uncleaved DNA left (log2) [7],uncleaved DNA left (log2) [8],uncleaved DNA left (log2) [9]
TTCAAGC,-0.0265,-0.102,0.0666,-0.102,-0.0247,-0.601,0.0366,-0.136,-0.0537
GACCGCG,-0.0215,-0.0118,-0.551,0.734,-0.00753,-0.142,-0.0423,0.0596,-0.0598
GACAAGA,0.0531,-0.0426,0.233,0.558,-0.00182,-0.0232,0.149,0.0946,0.121
TAGAACA,-0.0236,-0.0811,-0.235,-2.09,-0.101,-0.091,-2.22,0.0399,0.0493
CTACTGA,0.0858,-0.0438,-0.0415,0.288,-0.126,1.16,0.0902,0.0854,0.159
GCACGTA,0.083,0.0212,-0.0513,-0.0747,-0.0237,-0.328,0.107,0.0638,-0.0146
TGGATCT,0.0249,-0.0764,0.476,0.637,-0.11,1.52,-0.0365,0.0541,0.0879
AAGTATT,-3.89,-4.19,-2.8,-3.59,-3.63,0.232,-4.35,-0.217,-1.08
GGCATTG,0.0408,0.0417,0.0668,0.711,-0.0533,1.01,0.0471,0.0616,-0.0122
TAACATG,0.0676,0.039,-0.538,-1.54,0.0529,-1.04,0.231,0.0599,0.099
AAACCAC,-0.0733,-0.141,-0.0761,-1.4,-0.0601,-0.858,-0.446,-0.123,-0.0582
TGCATAT,-0.0466,0.00742,-0.093,-0.461,-0.141,-0.618,-0.204,-0.153,-0.191
ACCAAAT,-0.139,-0.153,-0.17,-0.712,-0.143,-0.734,-0.0845,-0.244,-0.141
TAATATG,0.15,0.0327,-1.4,-2.32,0.0265,-1.3,0.175,-0.00239,-0.103
ATTCTGG,0.162,0.0988,0.0468,0.231,0.0199,-0.46,0.205,-0.0697,0.116
CGCGGGT,-0.129,-0.167,-0.051,-0.0582,-0.189,0.244,-0.0911,-0.258,-0.375
TGCACCC,0.000246,-0.0597,0.198,0.344,0.00183,0.272,-0.256,-0.0258,0.0743
CGACTAT,0.0688,0.0928,0.05,0.574,0.0655,1.36,-0.00649,0.137,0.229
TCTTAAG,0.139,0.0274,-0.706,-0.687,0.157,-1.08,0.161,0.0769,0.0181
AGGCGTT,-0.000987,-0.00985,-0.0888,-0.0476,-0.0587,0.0931,-0.104,-0.0113,-0.0779

# From the supplement of paper PMC7826260
